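Protocol summary: plate cells (96-well), add compound at 5 concentrations, incubate 48 h, interpolate endpoints linearly. Here, GI50 denotes the concentration required for 50% inhibition of growth. TGI denotes the concentration required for complete inhibition of growth.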

The test has as its system NCI-H322M lung. Kind of test: growth of human tumour cells (NCI), 48 h.
Regarding `CC(=O)Nc1n[n+]([O-])c2cc(C)ccc2[n+]1[O-]`, the TGI was determined as 27.6 µM.

As for `COc1cccc(SSc2cccc(OC)c2C(=O)O)c1C(=O)O`, the TGI was above 100 µM.

Consider `COc1ccc(-c2csc(NC(=O)CN3CCN(c4cc5c(cc4F)c(=O)c(C(=O)O)cn5C4CC4)CC3)n2)cc1`, for which the GI50 is 3.72 µM and the TGI is above 100 µM.

`Cn1cc(S(=O)(=O)NC(=O)Nc2ccc(Cl)cc2)c(=O)c2ccc(F)cc21` returned a TGI above 100 µM.

In turn, `CCCCCCCCCCCc1c(O)c(=O)c2c(oc3c(=O)c(CCCCCCCCCCC)c(O)c(=O)c3n2-c2ccc(N(C)C)cc2)c1=O` came in with a TGI of 91.4 µM.

`O=C(O)c1c(Br)c(Br)c(Br)c(Br)c1C1c2ccc(O)cc2Oc2cc(O)ccc21` registered a TGI above 100 µM.

`COc1cc(-c2c3c(cc4c2OCO4)[C@@H](Nc2ccc(-c4ccc(-c5ccc(N[C@@H]6c7cc8c(cc7C(c7cc(OC)c(O)c(OC)c7)[C@H]7C(=O)OC[C@H]67)OCO8)cc5)cc4)cc2)[C@H]2COC(=O)[C@@H]2C3)cc(OC)c1O` (stereo partly drawn) returned a TGI of 10.6 µM.

In the case of `COc1cc(C)c2sc3ccccc3c(=O)c2c1NCCN(C)C`, the GI50 is 8.51 µM and the TGI was 21.2 µM.

Compound `CC1=Nc2c([nH]c(=S)[nH]c2=O)NC(c2c(Cl)cccc2Cl)C1` (stereo not drawn) displayed a TGI of 13 µM.

On to `CC(C)(C)OC(=O)NCc1cccc(N=C=S)c1`, for which the GI50 was 16.9 µM and the TGI amounted to 39.1 µM.

On to `COC(=O)C1(SC)C2CCC3C2CCC31` (stereo not drawn), for which the TGI is above 100 µM.

In turn, `CC(Oc1ccccc1)C(=O)NNC(=O)OC(C)(C)C` (stereo not drawn) showed a TGI above 100 µM.

On to `NCCN1C(=O)c2ccccc2C1c1ccc(Cl)cc1` (stereo not drawn), for which the TGI is above 100 µM.

For `O=C1C(c2c(O)[nH]c3ccc(Br)cc23)=Nc2ccc(Br)cc21`, the TGI was determined as 70.1 µM.

For the compound `O=C(/C(=C\I)c1ccccc1)c1ccccc1`, the TGI was found to be 17.7 µM.

In turn, `Cc1ccc(S(=O)(=O)N/N=C/C(C)C)cc1` showed a TGI above 100 µM.

Compound `C/C(=N\O)c1cccc[n+]1Cc1ccccc1` showed a TGI above 100 µM.

Turning to `CC1(C)OC2OC(C(COS(=O)(=O)C(F)(F)F)N=[N+]=[N-])C(OC(=O)c3ccccc3)C2O1` (stereo not drawn), the TGI was above 100 µM.

As for `N#Cc1cccc(C=NC23CC4CC(CC(C4)C2)C3)c1`, the TGI is above 100 µM.

With `CCCCNc1ccc(Nc2ccccc2)cc1`, the GI50 is 23.1 µM and the TGI was above 100 µM.

Take `CN(CCC(=O)/C(=C\c1ccccc1)c1ccc(Cl)cc1)Cc1ccccc1`: the GI50 was 7.92 µM and the TGI came out at 23.3 µM.

Turning to `CN(CCNC(=O)c1c[nH]c2c1Cc1ccccc1-2)CCNC(=O)c1c[nH]c2c1Cc1ccccc1-2`, the TGI was above 100 µM.

On to `c1ccc2c(c1)cc1n2CCc2c-1[nH]c1ccccc21`, for which the TGI is above 10 µM.

For `N#CC(C#N)=C/C=C(\Sc1ccc(F)cc1Cl)c1ccc(Cl)cc1`, the GI50 was 2.85 µM and the TGI worked out at 8.76 µM.

`COC(=O)Nc1nc2ccc(S(=O)(=O)N3CCOCC3)cc2[nH]1` displayed a TGI above 100 µM.

Regarding `CN(CCCCCl)P(=O)(OCc1ccc([N+](=O)[O-])o1)OCC1OC(n2cnc([N+](=O)[O-])c2N)C(O)C1O` (stereo not drawn), the GI50 was above 100 µM and the TGI was above 100 µM.

The values above are taken from PubChem BioAssay (NCI).
